{
  "source": "paper PMC13113215",
  "about": "“Multiple ETS family transcription factors bind mutant p53 via distinct interaction regions” (Febs Letters, 2025)",
  "binders": {"B1": {"name": "p53 T81E (phosphomimic mutant of p53) (natural protein)", "chain": "not shown", "notes": "p53 (TP53 product) with the phosphomimetic mutation T81E; also called T81 phosphomimetic p53 mutation; phosphomimetic T81E p53; source: E. coli Rosetta, purified (Ni NTA column; His-tag removed with thrombin-agarose)"}},
  "biological_target": "T1, ETV5 (human, UniProt P41161 1-510)",
  "T1 construct": "ETV5, human ETS family transcription factor, full-length; also called His-ETS protein; source: E. coli BL21 pRIL, purified (Ni-NTA agarose); not shown: 6xHis, N-terminal, kept",
  "test": "pull-down; purified ETS protein covalently fused to NHS-activated agarose beads, incubated with equal amounts of purified p53; wash with NP-40 lysis buffer (50 mM Tris/HCl pH 7.4, 250 mM NaCl, 5 mM EDTA, 10 mM NaF, 1% Nonidet P-40); p53 detected by immunoblot",
  "conditions": "both partners purified",
  "data": [
    {"binder": "B1", "values": [
      {"measurement": "binding result", "result": "binds"}
    ]}
  ]
}
